About 230 (0.21%) of roughly 110,000 compounds showed an effect of 50% or more. The list shows a part of the results.
Each compound was assayed against DPAP1 (Plasmodium falciparum, UniProt Q8IIJ9) (assay: primary screen, percent inhibition; read by cleavage of a fluorogenic dipeptide substrate; higher = more effect of the substance).
DPAP1, sequence (Q8IIJ9 whole entry, looked up): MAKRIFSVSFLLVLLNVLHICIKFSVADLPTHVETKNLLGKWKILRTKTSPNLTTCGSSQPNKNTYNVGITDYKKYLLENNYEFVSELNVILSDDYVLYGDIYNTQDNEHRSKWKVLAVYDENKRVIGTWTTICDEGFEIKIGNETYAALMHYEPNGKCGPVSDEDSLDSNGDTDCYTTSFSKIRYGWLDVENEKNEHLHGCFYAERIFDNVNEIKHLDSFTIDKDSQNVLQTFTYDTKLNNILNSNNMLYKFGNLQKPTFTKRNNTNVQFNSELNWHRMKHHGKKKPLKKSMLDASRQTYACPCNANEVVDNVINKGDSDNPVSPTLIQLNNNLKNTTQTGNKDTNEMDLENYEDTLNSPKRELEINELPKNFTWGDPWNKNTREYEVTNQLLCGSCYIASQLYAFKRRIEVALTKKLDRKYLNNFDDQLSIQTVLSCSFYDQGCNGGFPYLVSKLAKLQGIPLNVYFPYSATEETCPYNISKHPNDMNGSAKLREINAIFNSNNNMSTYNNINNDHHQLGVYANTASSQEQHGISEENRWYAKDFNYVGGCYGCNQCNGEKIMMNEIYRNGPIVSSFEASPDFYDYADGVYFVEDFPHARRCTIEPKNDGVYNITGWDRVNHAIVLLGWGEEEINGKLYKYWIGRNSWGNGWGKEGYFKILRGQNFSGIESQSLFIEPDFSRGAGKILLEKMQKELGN
Design: species or system P. falciparum D10 trophozoite lysates; single well
With `O=C(CN1CCN(Cc2ccccc2)CC1)NCC1COc2ccccc2O1` (stereo not drawn) the “% Inhibition @ 10 uM” value was -8.55%.
With `CN1CCC(N2CCc3c([nH]c4ccccc34)C2)CC1` the “% Inhibition @ 10 uM” value was -1.21%.
In the case of `O=C(CC1Sc2ccccc2NC1=O)NC1CCCCC1` (stereo not drawn), the “% Inhibition @ 10 uM” value is reported as 1.94%.
`COc1ccc2nc(NC(=O)CCn3cccc3)sc2c1` was tested, and the “% Inhibition @ 10 uM” value was 0.953%.
With `OC(COc1ccccc1)CN1CCCCCC1` (stereo not drawn) the “% Inhibition @ 10 uM” value was 1.04%.
With `O=C(CCc1nc2cccnc2n1-c1ccccc1)NCc1ccc(Cl)cc1` the “% Inhibition @ 10 uM” value was -2.88%.
`CC1=C(CCN2CCCC(O)C2)C(C)(C)CCC1` (stereo not drawn) was tested, and the “% Inhibition @ 10 uM” value was -4.75%.
`CC(C)(C)CC(=O)Nc1ccc(Oc2ccccc2)cc1` was tested, and the “% Inhibition @ 10 uM” value was 16.4%.
`CC(C)(C)OC(=O)N1CCC(c2c(C(=O)NCCc3ccccc3)cnn2-c2cccc(F)c2)CC1` was tested, and the “% Inhibition @ 10 uM” value was -6.36%.
`OCCCc1nc2n(n1)C(c1ccc(Cl)cc1)C=C(c1ccc(F)cc1)N2` (stereo not drawn) was tested, and the “% Inhibition @ 10 uM” value was 14.3%.
For `O=C(Cn1c(-c2ccccn2)nc2ccccc21)NCCN1CCOCC1`, the “% Inhibition @ 10 uM” value was 0.0539%.
For `CCN(CC)CCNC(=O)C12CC3CC(C)(CC(C)(C3)C1)C2`, the “% Inhibition @ 10 uM” value was -5.59%.
`CCOC(=O)C1=C(C)N(c2ccc(OCC)cc2)C(=O)/C1=C\c1ccccc1` was tested, and the “% Inhibition @ 10 uM” value was 1.4%.
`COc1ccc(CCNc2nc(-c3ccccn3)cs2)cc1OC` was tested, and the “% Inhibition @ 10 uM” value was -1.69%.
With `C#CCn1c(COC)nc2ccccc21` the “% Inhibition @ 10 uM” value was -2.28%.
In the case of `COCCNC(=O)CNS(=O)(=O)c1c(C)c(C)cc(C)c1C`, the “% Inhibition @ 10 uM” value is reported as -3.41%.
`N#Cc1ccc(-c2ccccc2)nc1S` was tested, and the “% Inhibition @ 10 uM” value was 47%.
In the case of `O=C(Nc1ccc2ccccc2c1)c1ccccc1Cl`, the “% Inhibition @ 10 uM” value is reported as -9%.
With `O=C1c2ccc(Oc3ccc([N+](=O)[O-])cc3)cc2C(=O)N1c1ccccc1O` the “% Inhibition @ 10 uM” value was -1.42%.
For `CCOC(=O)N1CCN(Cc2cn3c(-c4ccc(Br)cc4)nnc3s2)CC1`, the “% Inhibition @ 10 uM” value was 2.35%.
In the case of `CCC(C)NC(=O)C1CCN(S(=O)(=O)c2ccc3nc4c(c(C(=O)O)c3c2)CC(C)CC4)CC1` (stereo not drawn), the “% Inhibition @ 10 uM” value is reported as 0.291%.
For `Cc1oc(-c2ccc(C(=O)NCC3CCCO3)cc2)nc1COc1ccccc1` (stereo not drawn), the “% Inhibition @ 10 uM” value was -1.83%.
`O=C(CC(C(=O)O)c1ccccc1)Nc1cccc2ccccc12` (stereo not drawn) was tested, and the “% Inhibition @ 10 uM” value was 0.83%.
In the case of `CCCCC(=O)Nc1ccc(NCc2ccc(C)s2)cc1`, the “% Inhibition @ 10 uM” value is reported as -0.759%.
For `NC(=O)C1CCN(C(=O)CCn2c(=O)c3cccn3c3cccnc32)CC1`, the “% Inhibition @ 10 uM” value was 2.06%.
For `CCN1CCN(Cc2ccccc2Br)CC1`, the “% Inhibition @ 10 uM” value was 0.605%.
`CC(CCc1ccco1)NC(=O)C1CCN(c2ncnc3c2nc2n3CCCCC2)CC1` (stereo not drawn) was tested, and the “% Inhibition @ 10 uM” value was -5.03%.
With `C1=CC2CC1CC2CN1CCOCC1` (stereo not drawn) the “% Inhibition @ 10 uM” value was 2.7%.
With `Cc1ccc(C)n1-c1nnc(N2CCCC(C(=O)NCCC(C)C)C2)s1` (stereo not drawn) the “% Inhibition @ 10 uM” value was -0.637%.
With `CC(=O)Nc1ccc(C(=O)N(c2ccccc2)c2ccc3ccccc3c2)cc1` the “% Inhibition @ 10 uM” value was -0.988%.
In the case of `COc1ccc(-c2nc3s/c(=C\c4cccc5ccccc45)c(=O)n3n2)cc1OC`, the “% Inhibition @ 10 uM” value is reported as -2.98%.
In the case of `CCCCOC(=O)c1nc2nc(C)cc(C)n2n1`, the “% Inhibition @ 10 uM” value is reported as 1.87%.
In the case of `COc1ccc(C2CC(O)=C/C(=N/CCC(C)C)C2)cc1` (stereo not drawn), the “% Inhibition @ 10 uM” value is reported as 2.38%.
`CC(C)C/N=C1\CC(C)(C)CC(O)=C1C(=S)Nc1ccccc1` was tested, and the “% Inhibition @ 10 uM” value was 3.46%.
`Cc1sc(-n2cccc2)c(C#N)c1C` was tested, and the “% Inhibition @ 10 uM” value was 3.3%.
In the case of `CCN1CCN(Cc2cc(OC)ccc2O)CC1`, the “% Inhibition @ 10 uM” value is reported as -1.78%.
With `Cc1ccc(C#N)c(SCc2cccc(Br)c2)n1` the “% Inhibition @ 10 uM” value was 0.726%.
With `O=C(CN1CCN(Cc2ccccc2)C1=O)NCCCN1CCOCC1` the “% Inhibition @ 10 uM” value was -0.704%.
With `Cc1ccc2nc(/N=C(\N)NC(=O)Cc3ccc(Cl)cc3)nc(C)c2c1` the “% Inhibition @ 10 uM” value was 5.55%.
`Cc1ccc(OCC(O)CN2CCCCC2)cc1C` (stereo not drawn) was tested, and the “% Inhibition @ 10 uM” value was 3.47%.
In the case of `COc1cccc(OC)c1C(=O)N1CCN(C(=O)c2ccccc2)CC1`, the “% Inhibition @ 10 uM” value is reported as -2.87%.
For `COc1ccc(NC(=O)c2c(-c3ccccc3Cl)noc2C)c(OC)c1`, the “% Inhibition @ 10 uM” value was 0.35%.
For `CCCn1c2ccccc2c2cnn(CC(=O)NCCc3c[nH]c4ccccc34)c(=O)c21`, the “% Inhibition @ 10 uM” value was -0.968%.
With `CCC(NC(=O)c1c(Cl)cnn1C)c1ccc(C(C)C)cc1` (stereo not drawn) the “% Inhibition @ 10 uM” value was 2.32%.
For `C/N=c1\c(NC(=O)CCc2ccccc2)c(O)oc2ccccc12`, the “% Inhibition @ 10 uM” value was 2.5%.
With `C#CCNC(=O)NC(=O)c1sc2ccccc2c1Cl` the “% Inhibition @ 10 uM” value was -2.36%.
For `COc1cc(/C=N/n2cnnc2S)ccc1O`, the “% Inhibition @ 10 uM” value was 38.6%.
`Cc1cc2ncn(CCOc3ccccc3)c2cc1C` was tested, and the “% Inhibition @ 10 uM” value was -4.07%.
In the case of `COc1ccc(CN2C(=O)NC(=O)/C(=C\c3ccc4c(c3)OCO4)C2=O)cc1`, the “% Inhibition @ 10 uM” value is reported as -4.93%.
`CCOC(=O)C1=C(C)OC(N)=C(C#N)C1c1ccccc1[N+](=O)[O-]` (stereo not drawn) was tested, and the “% Inhibition @ 10 uM” value was 6.4%.
`Cc1c2c(cc3c1oc(=O)c1ccccc13)CN(Cc1ccco1)CO2` was tested, and the “% Inhibition @ 10 uM” value was -4.39%.

Reference: PMC6919601, “Identification of Plasmodium dipeptidyl aminopeptidase allosteric inhibitors by high throughput screening” (PLoS ONE, 2019)
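Further: 30 min substrate incubation versus DMSO and 10 µM JCP410 controls.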
